57 compounds from PMC4336329 (PLoS ONE, 2015) can be followed below.

About 2,200 (0.71%) of roughly 310,000 compounds showed an effect of 50% or more. Effects have a minus sign here. Some of the results follow.

For the test, the target named is human ether-à-go-go-related gene (hERG) potassium channel (human, UniProt Q12809). Briefly: primary screen, population patch clamp on CHO cells stably expressing hERG.
Chain of human ether-à-go-go-related gene (hERG) potassium channel (Q12809 whole entry, looked up): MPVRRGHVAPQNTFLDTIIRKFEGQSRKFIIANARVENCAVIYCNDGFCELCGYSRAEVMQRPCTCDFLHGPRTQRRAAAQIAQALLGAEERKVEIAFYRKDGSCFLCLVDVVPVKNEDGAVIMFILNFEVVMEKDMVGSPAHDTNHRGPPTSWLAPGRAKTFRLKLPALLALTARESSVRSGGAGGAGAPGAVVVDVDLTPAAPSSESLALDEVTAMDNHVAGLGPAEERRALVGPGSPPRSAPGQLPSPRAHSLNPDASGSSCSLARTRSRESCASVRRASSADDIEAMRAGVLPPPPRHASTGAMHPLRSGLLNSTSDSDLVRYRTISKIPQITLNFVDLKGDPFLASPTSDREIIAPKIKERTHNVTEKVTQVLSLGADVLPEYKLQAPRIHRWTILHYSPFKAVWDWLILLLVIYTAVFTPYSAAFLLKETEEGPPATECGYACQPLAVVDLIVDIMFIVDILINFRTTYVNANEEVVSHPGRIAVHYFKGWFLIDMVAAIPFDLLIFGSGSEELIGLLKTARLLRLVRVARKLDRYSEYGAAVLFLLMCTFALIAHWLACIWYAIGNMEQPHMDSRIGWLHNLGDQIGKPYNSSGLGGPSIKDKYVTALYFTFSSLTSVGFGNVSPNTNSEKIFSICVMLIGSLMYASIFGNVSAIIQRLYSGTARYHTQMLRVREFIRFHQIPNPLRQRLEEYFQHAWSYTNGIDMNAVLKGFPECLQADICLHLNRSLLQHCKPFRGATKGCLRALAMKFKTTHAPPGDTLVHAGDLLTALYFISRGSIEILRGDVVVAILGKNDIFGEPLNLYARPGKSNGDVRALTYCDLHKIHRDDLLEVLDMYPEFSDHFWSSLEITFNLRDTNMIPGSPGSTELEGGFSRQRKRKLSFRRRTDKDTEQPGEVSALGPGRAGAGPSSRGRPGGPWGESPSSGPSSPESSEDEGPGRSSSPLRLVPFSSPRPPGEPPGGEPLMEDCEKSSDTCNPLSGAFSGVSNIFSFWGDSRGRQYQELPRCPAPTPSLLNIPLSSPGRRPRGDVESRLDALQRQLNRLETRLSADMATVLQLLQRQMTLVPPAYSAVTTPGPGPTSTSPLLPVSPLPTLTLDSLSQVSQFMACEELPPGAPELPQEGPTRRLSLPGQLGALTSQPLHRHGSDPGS
On to `COc1ccc(/C=N/NC(=O)c2ccc3c(c2)OCCO3)c(OC)c1`, for which the “hERG current change (%, negative = inhibition) at 1uM” value is listed as 16.3%.

Consider `CCOc1ccccc1CNC(=O)C1CCN(c2nn3c(=O)cc(C)nc3s2)CC1`, for which the “hERG current change (%, negative = inhibition) at 1uM” value was -0.921%.

As to `COc1ccc(N2C(=O)c3cccc4cc(Br)cc(c34)C2=O)cc1`, the “hERG current change (%, negative = inhibition) at 1uM” value is listed as 4.08%.

As to `CCNC(=O)COn1c(SCC(=O)NCC)nc2ccccc2c1=O`, the “hERG current change (%, negative = inhibition) at 1uM” value is reported as 13.2%.

Take `O=C(N/N=C/c1cc2c(cc1[N+](=O)[O-])OCO2)c1ccccn1`: the “hERG current change (%, negative = inhibition) at 1uM” value is listed as 10.1%.

`Cc1ccc(-c2nnn(CC(=O)N(CC3CCCO3)C(C(=O)NC3CCCC3)c3ccc(F)cc3)n2)o1` (stereo not drawn): the “hERG current change (%, negative = inhibition) at 1uM” value is listed as 18.4%.

As for `O=C(/C=C/c1cccs1)Nc1ccc(S(=O)(=O)Nc2ncccn2)cc1`, the “hERG current change (%, negative = inhibition) at 1uM” value is reported as 16.4%.

Take `COc1ccc2ccc3c(c2c1)N=C[C@]1(O3)N(C)c2ccccc2C1(C)C`: the “hERG current change (%, negative = inhibition) at 1uM” value amounted to 4.84%.

As to `CCOCCCn1c(SCc2ccccc2)nnc1-c1ccncc1`, the “hERG current change (%, negative = inhibition) at 1uM” value stood at 6.98%.

For `C=CCN(CC=C)C(=O)c1cc(Cl)ccc1[N+](=O)[O-]`, the “hERG current change (%, negative = inhibition) at 1uM” value came to 9.3%.

As for `Cc1cccc(NCC(=O)N/N=C/c2cccc(Br)c2)c1`, the “hERG current change (%, negative = inhibition) at 1uM” value worked out at 0.326%.

With `CCOc1ccc(N2CC(C(=O)Nc3ccccc3N3CCCC3)CC2=O)cc1` (stereo not drawn), the “hERG current change (%, negative = inhibition) at 1uM” value is -7.71%.

For `Cc1ccc(-c2cc(-c3ccccc3)no2)cc1`, the “hERG current change (%, negative = inhibition) at 1uM” value is 12.8%.

For `CCC(=O)N1CCC2(CC1)Oc1ccc(F)cc1C(=O)C21CC(c2ccccc2)=NO1` (stereo not drawn), the “hERG current change (%, negative = inhibition) at 1uM” value is 16.7%.

Consider `O=C(O/N=C1\CCS(=O)(=O)c2sccc21)C1CC1`, for which the “hERG current change (%, negative = inhibition) at 1uM” value is -3.05%.

Regarding `NNc1nc2ccc(Cl)cc2s1`, the “hERG current change (%, negative = inhibition) at 1uM” value came to 1.16%.

Take `Cc1cccc(/C(N)=N/OC(=O)c2ccc(F)cc2)c1`: the “hERG current change (%, negative = inhibition) at 1uM” value worked out at 3.4%.

In the case of `Cc1ccc(S(=O)(=O)N2CC3(C)CN(S(=O)(=O)c4ccc(C)cc4)CC(C)(C2)C3=O)cc1`, the “hERG current change (%, negative = inhibition) at 1uM” value turned out to be 14.4%.

With `O=C(NCC(c1ccco1)N1CCc2ccccc2C1)c1ccccc1` (stereo not drawn), the “hERG current change (%, negative = inhibition) at 1uM” value is -3.13%.

Regarding `Cc1ccc2oc(=O)c(-c3ccc(O)cc3)c(C)c2c1`, the “hERG current change (%, negative = inhibition) at 1uM” value was 16.5%.

Turning to `Cc1ccc(CNC(=O)CN2C(=O)NC(C)(c3ccccc3Cl)C2=O)cc1` (stereo not drawn), the “hERG current change (%, negative = inhibition) at 1uM” value stood at 10.8%.

With `C/C(=N\NC(=O)Cc1c(F)cccc1Cl)c1cccnc1`, the “hERG current change (%, negative = inhibition) at 1uM” value is given as 12%.

Consider `O=C(NCc1ccc(Cl)cc1)C1CCN(S(=O)(=O)c2ccccc2)CC1`, for which the “hERG current change (%, negative = inhibition) at 1uM” value was determined as 10.8%.

As for `C[C@]12CCC3[C@@H](CCC4=CC(=O)CC[C@@]43C=O)C1CCC2=O` (stereo partly drawn), the “hERG current change (%, negative = inhibition) at 1uM” value was determined as 16.8%.

For the compound `COc1cc2c(cc1OC)C1=C(C#N)CN(C3CCCCC3)CN1CC2`, the “hERG current change (%, negative = inhibition) at 1uM” value stood at 4.05%.

In the case of `CCN(CC(=O)Nc1c(F)cccc1F)C(=O)CNC(=O)c1sc2ccccc2c1Cl`, the “hERG current change (%, negative = inhibition) at 1uM” value turned out to be 10.7%.

Take `Cc1ccc(N2C(=O)CS(=O)C(c3ccccc3)C2=O)cc1C` (stereo not drawn): the “hERG current change (%, negative = inhibition) at 1uM” value was 11.4%.

As to `O=C1Nc2ccc(Br)cc2/C1=N/N=C/C1=C(N2CCOCC2)C(=C\c2ccccc2)/CC1`, the “hERG current change (%, negative = inhibition) at 1uM” value was 9.07%.

Regarding `COc1ccc(C(=O)OCC(=O)NC2CC2)cc1S(=O)(=O)N1CCOCC1`, the “hERG current change (%, negative = inhibition) at 1uM” value is listed as 14.2%.

Consider `CCn1c(C)c(C)c2cc(C(=O)NCCCN3CCOCC3)ccc21`, for which the “hERG current change (%, negative = inhibition) at 1uM” value came to 13.9%.

Turning to `CCC1CCCN1Cn1cnc2c([nH]c3ccc(C)cc32)c1=O` (stereo not drawn), the “hERG current change (%, negative = inhibition) at 1uM” value is -54.9%.

As for `COc1ccc(-c2c(NC(=O)c3ccco3)oc3c(C)cccc3c2=O)cc1`, the “hERG current change (%, negative = inhibition) at 1uM” value is 13.8%.

Regarding `Cc1cc(Nc2ccccc2)c2c([N+](=O)[O-])cc(C)c(C)c2n1`, the “hERG current change (%, negative = inhibition) at 1uM” value is reported as -9.78%.

`CC1CCN(CCCNC(=O)c2nn(C)c3c2CS(=O)(=O)c2ccccc2-3)CC1`: the “hERG current change (%, negative = inhibition) at 1uM” value is 4.87%.

With `COc1ccc(CNC(=O)C2CCC(CNS(=O)(=O)c3cccs3)CC2)cc1` (stereo not drawn), the “hERG current change (%, negative = inhibition) at 1uM” value was -11.2%.

As to `CCOc1ccc(NC(=O)CN(C)C(=O)c2sc3ccccc3c2Cl)cc1OCC`, the “hERG current change (%, negative = inhibition) at 1uM” value is reported as 6.83%.

Regarding `Cc1ccc(C(CC(=O)O)Nc2nc(N3CCCCC3)nc(N3CCCCC3)n2)cc1` (stereo not drawn), the “hERG current change (%, negative = inhibition) at 1uM” value was found to be 3.03%.

On to `CCOC(=O)C1=C(C)Nc2nnnn2C1c1cccnc1` (stereo not drawn), for which the “hERG current change (%, negative = inhibition) at 1uM” value is on record as 15.2%.

For the compound `CNS(=O)(=O)c1cc(Br)ccc1S(=O)c1ccccc1C(=O)O` (stereo not drawn), the “hERG current change (%, negative = inhibition) at 1uM” value was determined as 13.7%.

On to `CC1=Nc2cc(Cl)ccc2Oc2ccccc21`, for which the “hERG current change (%, negative = inhibition) at 1uM” value stood at 12.6%.

`COc1ccc(CCNC(=O)C2CCN(S(=O)(=O)c3ccc(OC)c(OC)c3)CC2)cc1OC`: the “hERG current change (%, negative = inhibition) at 1uM” value worked out at 6.7%.

`Cc1ccccc1NC(=O)CCC(=O)N/N=C/c1ccc(F)cc1`: the “hERG current change (%, negative = inhibition) at 1uM” value is 16.6%.

For the compound `COc1ccc(NC(=O)[C@H](C)NC(N)=O)cc1S(=O)(=O)Nc1cc(C)ccc1Br`, the “hERG current change (%, negative = inhibition) at 1uM” value came to 9.7%.

Consider `Cc1cc(C)c2[nH]c(O)c(N=NC(=S)NCC3CCCO3)c2c1` (stereo not drawn), for which the “hERG current change (%, negative = inhibition) at 1uM” value was 5.2%.

With `CC(C(=O)c1cn(C)c2ccccc12)c1ccccc1` (stereo not drawn), the “hERG current change (%, negative = inhibition) at 1uM” value came to 18.3%.

For the compound `CCn1cc(/C=N\NC(=O)c2cc(-c3ccccc3OC)nc3ccccc23)c(C)n1`, the “hERG current change (%, negative = inhibition) at 1uM” value worked out at 9.66%.

For the compound `O=C(CNS(=O)(=O)c1c(Cl)cccc1Cl)N1CCCCCC1`, the “hERG current change (%, negative = inhibition) at 1uM” value worked out at 12.5%.

`Cn1c(=O)n(Cc2ccccc2F)c2ccccc21`: the “hERG current change (%, negative = inhibition) at 1uM” value is -14.3%.

On to `CN(C)c1ccc(C(O)Cc2nc3ccccc3n2C)cc1` (stereo not drawn), for which the “hERG current change (%, negative = inhibition) at 1uM” value was 8.35%.

Regarding `CS(=O)(=O)N1CCN(C(=O)Cc2ccccc2Cl)CC1`, the “hERG current change (%, negative = inhibition) at 1uM” value was 17.7%.

As to `O=c1c2c(-c3ccc([N+](=O)[O-])cc3)csc2nc2n1CCC2`, the “hERG current change (%, negative = inhibition) at 1uM” value is given as -43.9%.

With `COc1ccc(OC)c(S(=O)(=O)n2nnc3cc(Cl)ccc32)c1`, the “hERG current change (%, negative = inhibition) at 1uM” value is 11.1%.

For `COc1ccccc1N1CCN(C/C(C)=C/c2ccccc2)CC1`, the “hERG current change (%, negative = inhibition) at 1uM” value is -10.4%.

On to `Cc1occc1C(=O)NCc1ccccc1`, for which the “hERG current change (%, negative = inhibition) at 1uM” value is listed as 13%.

Take `COc1ccc(C2(O)CCN(C(=O)c3c(F)cccc3F)CC2)cc1`: the “hERG current change (%, negative = inhibition) at 1uM” value is 7.24%.

Turning to `CC(=O)Nc1ccc(S(=O)(=O)NCC(=O)OCC(=O)N2CCc3ccccc32)cc1`, the “hERG current change (%, negative = inhibition) at 1uM” value was 2.85%.

As to `O=C(Nc1ccccc1F)c1ccc(CSc2ccccc2)o1`, the “hERG current change (%, negative = inhibition) at 1uM” value is on record as 4.79%.
